Experimental data from PubChem BioAssay AID1461 (National Center for Advancing Translational Sciences (NCATS), 2008).
Among all 220,000 compounds or so, about 2,300 (1%) were called active. Inconclusive results, whose numbers are uncertain, are shown with a selection of clear calls. The call rests on the fitted dose curve; in most records, active means well fitted inhibition curve with a large enough effect; inconclusive means small, poorly fitted or top-dose-only effect, or effect the other way; inactive means no such curve, though single readings can be large or run the other way. Potencies of inconclusive entries are left out as doubtful fits.

What follows are molecules tested against Neuropeptide S receptor (Homo sapiens) (UniProt Q6W5P4) (assay: qHTS Assay for Antagonists of the Neuropeptide S Receptor: cAMP Signal Transduction). Settings: CHO-NPSR cells, cAMP TR-FRET, antagonist mode; activity change, negative = inhibition: at 38.3 µM (top of the series) unless noted.
Further: nearly all actives have a fitted effect of over 50% in size.
On the % scale 0 is the no-effect control and ±100 the full control effect; potency means the concentration at half of the fitted maximal effect; tags describe the fitted curve by direction and shape.

UniProt Q6W5P4, sequence (Q6W5P4 whole entry, looked up): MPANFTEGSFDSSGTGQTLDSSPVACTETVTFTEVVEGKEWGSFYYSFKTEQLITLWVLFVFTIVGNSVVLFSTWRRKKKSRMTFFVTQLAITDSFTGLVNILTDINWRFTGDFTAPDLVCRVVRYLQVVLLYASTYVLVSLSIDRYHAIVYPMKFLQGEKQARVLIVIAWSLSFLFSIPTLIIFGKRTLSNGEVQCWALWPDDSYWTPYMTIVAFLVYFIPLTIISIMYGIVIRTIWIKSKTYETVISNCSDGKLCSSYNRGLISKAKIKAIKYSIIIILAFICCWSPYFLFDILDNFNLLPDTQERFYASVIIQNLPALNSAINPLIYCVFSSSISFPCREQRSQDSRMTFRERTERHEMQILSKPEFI

Compound | activity change, negative = inhibition | Potency
O=[N+]([O-])c1ccc(-c2csc(Nc3ccccc3)[n+]2Cc2ccccc2)cc1 | inactive: -29.9% | –
O=C(Cc1ccccc1)Nc1cccc(NC(=O)c2cccs2)c1 | inactive: 21.8% | –
CC(C)CCNC(=O)C(c1ccco1)N(CC1CCCO1)C(=O)Cn1nnc2ccccc21 (stereo not drawn) | – | inconclusive [activator, full curve, poor fit]
Cc1ccc2nc3c(cc(C(=O)NCC4CCCO4)c(=N)n3CCCOC(C)C)c(=O)n2c1 (stereo not drawn) | – | inconclusive [inhibitor, single point]
COc1ccc(C(=O)C(OC(=O)CNC(=O)c2ccco2)c2ccccc2)cc1 (stereo not drawn) | inactive: -15.1% [at 46.1 µM] | –
CCOC(=O)C1=C(CSc2nc(-c3ccccc3)ccc2C#N)OC(N)=C(C#N)C1c1ccccc1 (stereo not drawn) | – | inconclusive [inhibitor, single point]
CC(C)C(c1nnnn1C1CCCC1)N1CCCc2ccccc21 (stereo not drawn) | – | inconclusive [inhibitor, single point]
O=C(NC1CCCCC1)C(c1ccc2ncccc2c1)N(Cc1ccc(F)cc1)C(=O)c1cccs1 (stereo not drawn) | – | inconclusive [inhibitor, partial curve]
Cc1ccc(C)c(N2CCN(C(=O)CCCOc3cc(=O)n(C)c4ccccc34)CC2)c1 | – | inconclusive [inhibitor, partial curve, poor fit]
Cc1cc(Cl)ccc1OCc1nc(-c2ccc(O)cc2)n[nH]1 | inactive: -19.8% [at 46.1 µM] | –
COc1ccc(CC(=O)N/N=C/C=C/c2cccc([N+](=O)[O-])c2)cc1OC | – | inconclusive [activator, partial curve]
O=C(Nc1ccccn1)C12CC3CC(C1)CC(C(=O)Nc1ccccn1)(C3)C2 | inactive: 12.9% [at 46.1 µM] | –
CS(=O)(=O)N(CC(=O)N1CCN(C(c2ccccc2)c2ccccc2)CC1)C1CCCCC1 | – | inconclusive [inhibitor, single point]
C=C(C)C1CCC(C)=C1COC(=O)Nc1ccccc1 (stereo not drawn) | – | inconclusive [inhibitor, single point]
CC(C)(C)NNC(=S)Nc1cccc(F)c1 | – | inconclusive [activator, full curve]
Cc1cccc(S(=O)(=O)c2c(N)n(Cc3ccco3)c3nc4ccccc4nc23)c1 | – | inconclusive [inhibitor, partial curve]
O=C(CSc1nc2ccccc2n1Cc1ccccc1)N/N=C/c1ccco1 | – | inconclusive [inhibitor, partial curve]
CCOC(=O)C(=Cc1ccc(-c2ccsc2C(=O)OC)o1)C(=O)OCC | – | inconclusive [inhibitor, single point]
